B1: AM13 scDb (bispecific antibody)
chain: [about 100 residues not written out]FGPGTKVDIKGGGGSEVQLQQSGPELVKPGASMKISCKASGYSFTGYTMNWVKQSHGKNLEWMGLINPYKGVSTYNQKFKDKATLTVDKSSSTAYMELLSLTSEDSAVYYCARSGYYGDSDWYFDVWGAGTTVTVSSGGGGSGGGGSGGGGSDIQMTQTTSSLSASLGDRVTISCRASQDIRNYLNWYQQKPDGTVKLLIYYTSRLHSGVPSKFSGSGSGTDYSLTISNLEQEDIATYFCQQGNTLPWTFAGGTKLEIKGGGGSQVQLVQSGAEVKKPGASVKVSCKVSGYTLTELSMHWVRQAPGKGLEWMGGFDPYLARTIYAQKFQGRVTMTEDTSTDTAYMELSSLRSEDTAVYYCATDQGASWGFYWGQGTLVTVSS
notes: as m68; without a His-tag in the SPR assay
B2: AM15 scDb (bispecific antibody)
chain: [about 100 residues not written out]FGPGTKVDIKGGGGSEVQLQQSGPELVKPGASMKISCKASGYSFTGYTMNWVKQSHGKNLEWMGLINPYKGVSTYNQKFKDKATLTVDKSSSTAYMELLSLTSEDSAVYYCARSGYYGDSDWYFDVWGAGTTVTVSSGGGGSGGGGSGGGGSDIQMTQTTSSLSASLGDRVTISCRASQDIRNYLNWYQQKPDGTVKLLIYYTSRLHSGVPSKFSGSGSGTDYSLTISNLEQEDIATYFCQQGNTLPWTFAGGTKLEIKGGGGSQVQLVQSGAEVKKPGASVKVSCKVSGYTLTELSMHWVRQAPGKGLEWMGGFDPEDGETIYAQKFQGRVTMTEDTSTDTAYMELSSLRSEDTAVYYCATDQGSSWGFYWGQGTLVTVSS
notes: as m68
B3: AM15 scFv displayed on phage (scFv)
scFv: QVQLVQSGAEVKKPGASVKVSCKVSGYTLTELSMHWVRQAPGKGLEWMGGFDPEDGETIYAQKFQGRVTMTEDTSTDTAYMELSSLRSEDTAVYYCATDQGSSWGFYWGQGTLVTVSSKLSGSASAPKLEEGEFSEARV[about 100 residues not written out]FGPGTKVDIK
notes: scFv on the surface of phage particles; also called AM15 phages

Tests used:
[1] = biological target: T1, HLA-A*02:01/MAGE-A4^230-239, soluble recombinant biotinylated pHLA (human, UniProt P04439 25-299 at identity 0.94); P61769 part only, biotinylated); assay: SPR, biotinylated pHLA on neutravidin chip, scDb without His-tag injected (Assay 6-2)
T1 construct: Empty biotinylated HLA-A2 monomers (Tetramer Shop) loaded with synthetic peptide; also called MAGE-A4 pMHC; MAGE-A4-pHLA

[2] = biological target: T2, HLA-A*02:01/MAGE-A4^230-239 displayed on cells (MAGE-A4^230-239 pulsed T2 cells; NCI-H1703, A375, THP1, … (human, UniProt P04439 25-365 at identity 0.94); P61769 part only); assay: cell-based or functional assay
[3] = biological target: T1, HLA-A*02:01/MAGE-A4^230-239, soluble …; assay: ELISA, soluble biotinylated pHLA on neutravidin, scDb, protL-HRP
[4] = biological target: T2, HLA-A*02:01/MAGE-A4^230-239 displayed …; assay: cell-based or functional assay; remark: listed apart in the source
[5] = biological target: T2, HLA-A*02:01/MAGE-A4^230-239 displayed …; assay: cell-based or functional assay; remark: listed apart in the source
[6] = biological target: T2, HLA-A*02:01/MAGE-A4^230-239 displayed …; assay: cell-based or functional assay; remark: listed apart in the source
[7] = biological target: T3, HLA-A*02:01 loaded with MAGE-C2 homologue peptide, soluble biotinylated (human, UniProt P04439 25-299 at identity 0.94); P61769 part only, biotinylated); assay: pHLA capture ELISA: biotinylated pHLA on neutravidin, scFv-phage, anti-M13 antibody detection [cont.) D]
T3 construct: HLA monomer as for m1

[8] = biological target: T4, HLA-A*02:01 loaded with MAGE-A3 homologue peptide, soluble biotinylated (human, UniProt P04439 25-299 at identity 0.94); P61769 part only, biotinylated); assay: as above
T4 construct: HLA monomer as for m1

[9] = biological target: T5, HLA-A*02:01 loaded with MAGE-A2 homologue peptide, soluble biotinylated (human, UniProt P04439 25-299 at identity 0.94); P61769 part only, biotinylated); assay: as above
T5 construct: HLA monomer as for m1

[10] = biological target: T6, HLA-A*02:01 loaded with MAGE-A1 homologue peptide, soluble biotinylated (human, UniProt P04439 25-299 at identity 0.94); P61769 part only, biotinylated); assay: as above
T6 construct: HLA monomer as for m1

[11] = biological target: T7, HLA-A*02:01 loaded with MAGE-B6 homologue peptide, soluble biotinylated (human, UniProt P04439 25-299 at identity 0.94); P61769 part only, biotinylated); assay: as above
T7 construct: HLA monomer as for m1

[12] = biological target: T8, HLA-A*02:01 loaded with MAGE-A11 homologue peptide, soluble biotinylated (human, UniProt P04439 25-299 at identity 0.94); P61769 part only, biotinylated); assay: as above
T8 construct: HLA monomer as for m1

[13] = biological target: T9, HLA-A*02:01 loaded with MAGE-A10 homologue peptide, soluble biotinylated (human, UniProt P04439 25-299 at identity 0.94); P61769 part only, biotinylated); assay: as above
T9 construct: HLA monomer as for m1

[14] = biological target: T10, HLA-A*02:01 loaded with MAGE-B2 homologue peptide, soluble biotinylated (human, UniProt P04439 25-299 at identity 0.94); P61769 part only, biotinylated); assay: as above
T10 construct: HLA monomer as for m1

[15] = biological target: T11, HLA-A*02:01 loaded with MAGE-B4 homologue peptide, soluble biotinylated (human, UniProt P04439 25-299 at identity 0.94); P61769 part only, biotinylated); assay: as above
T11 construct: HLA monomer as for m1

[16] = biological target: T12, HLA-A*02:01 loaded with MAGE-A9 homologue peptide, soluble biotinylated (human, UniProt P04439 25-299 at identity 0.94); P61769 part only, biotinylated); assay: as above
T12 construct: HLA monomer as for m1

[17] = biological target: T13, HLA-A*02:01 loaded with MAGE-B10 homologue peptide, soluble biotinylated (human, UniProt P04439 25-299 at identity 0.94); P61769 part only, biotinylated); assay: as above
T13 construct: HLA monomer as for m1

[18] = biological target: T14, HLA-A*02:01 loaded with MAGE-A12 homologue peptide, soluble biotinylated (human, UniProt P04439 25-299 at identity 0.94); P61769 part only, biotinylated); assay: as above
T14 construct: HLA monomer as for m1

Row | Binder | Kd [1] [nM] | IFNγ EC50 vs. target positive cells (pM) [2] [pM] | EC50 [3] [nM] | EC50 vs. NCI-H1703 (pM), T-cell specific killing [4] [pM] | EC50 vs. C-33-A (pM), T-cell specific killing [5] [pM] | EC50 vs. HuTu80 (pM), T-cell specific killing [5] [pM] | EC50 vs. A375 (pM), T-cell specific killing [6] [pM] | binding result [7] | binding result [8] | binding result [9] | binding result [10] | binding result [11] | binding result [12] | binding result [13] | binding result [14] | binding result [15] | binding result [16] | binding result [17] | binding result [18]
1 | B1 | 7 | 5.8 | 0.43 | 3.9 |  |  |  |  |  |  |  |  |  |  |  |  |  |  | 
2 | B2 |  | 10.6 | 1.36 | 2.2 | 11 | 7.1 | 4.2 |  |  |  |  |  |  |  |  |  |  |  | 
3 | B3 |  |  |  |  |  |  |  | no binding (tested: 10^9 phages/well) | no binding (tested: 10^9 phages/well) | no binding (tested: 10^9 phages/well) | no binding (tested: 10^9 phages/well) | no binding (tested: 10^9 phages/well) | no binding (tested: 10^9 phages/well) | no binding (tested: 10^9 phages/well) | no binding (tested: 10^9 phages/well) | no binding (tested: 10^9 phages/well) | no binding (tested: 10^9 phages/well) | no binding (tested: 10^9 phages/well) | no binding (tested: 10^9 phages/well)

Source: patent US20260209359A1 (NEXTERA, published 2026)
